# Measurements published in the supplement of paper PMC8728848.
# Some of the results follow.
# Columns and labels:
# Test in all cases: glycan array binding signal (z-score within array); higher = stronger binding
# Conditions in all cases: glycan notation: IUPAC condensed, linker removed
# [1] = biological target: Gal(b1-3)GlcNAc(b1-6)GalNAc
# Outline: (§1)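 Negative Z-scores can be read as non-binding. The Z-score is calculated within each array and then averaged across arrays of one protein sequence at different concentrations or buffers and across linkers. Arrays, 3228 in all, were curated from the Consortium for Functional Glycomics database and kept only where the protein sequence was available.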
# [2] = biological target: Gal(b1-3)GlcNAc(b1-6)[Gal(b1-3)]GalNAc
# Outline: as §1
# Gal(b1-3)GlcNAc6S = biological target: Gal(b1-3)GlcNAc6S
# Outline: as §1
# [3] = biological target: Gal(b1-3)[Fuc(a1-4)]GlcNAc
# Outline: as §1
# [4] = biological target: Gal(b1-3)[Fuc(a1-4)]GlcNAc(b1-2)Man
# Outline: as §1
# [5] = biological target: Gal(b1-3)[Fuc(a1-4)]GlcNAc(b1-2)Man(a1-3)[Gal(b1-3)[Fuc(a1-4)]GlcNAc(b1-2)Man(a1-6)]Man(b1-4)GlcNAc(b1-4)[Fuc(a1-6)]GlcNAc
# Outline: as §1
# [6] = biological target: Gal(b1-3)[Fuc(a1-4)]GlcNAc(b1-3)Gal(b1-3)[Fuc(a1-4)]GlcNAc
# Outline: as §1
# [7] = biological target: Gal(b1-3)[Fuc(a1-4)]GlcNAc(b1-3)Gal(b1-4)[Fuc(a1-3)]GlcNAc
# Outline: as §1
# [8] = biological target: Gal(b1-3)[Fuc(a1-4)]GlcNAc(b1-6)GalNAc
# Outline: as §1
# [9] = biological target: Gal(b1-3)[GlcNAc(b1-6)]GalNAc
# Outline: as §1
# [10] = biological target: Gal(b1-3)[Neu5Ac(a2-6)]GalNAc
# Outline: as §1
# [11] = biological target: Gal(b1-3)[Neu5Ac(a2-6)]GlcNAc(b1-4)Gal(b1-4)Glc
# Outline: as §1
# [12] = biological target: Gal(b1-3)[Neu5Ac(b2-6)]GalNAc
# Outline: as §1
# Gal(b1-4)Gal = biological target: Gal(b1-4)Gal
# Outline: as §1
# [13] = biological target: Gal(b1-4)GalNAc(a1-3)[Fuc(a1-2)]Gal(b1-4)GlcNAc
# Outline: as §1
# [14] = biological target: Gal(b1-4)GalNAc(b1-3)[Fuc(a1-2)]Gal(b1-4)GlcNAc
# Outline: as §1
# Gal(b1-4)Glc = biological target: Gal(b1-4)Glc
# Outline: as §1
# Gal(b1-4)Glc6S = biological target: Gal(b1-4)Glc6S
# Outline: as §1
# Gal(b1-4)GlcNAc = biological target: Gal(b1-4)GlcNAc
# Outline: as §1
# [15] = biological target: Gal(b1-4)GlcNAc(a1-6)Gal(b1-4)GlcNAc
# Outline: as §1
# Gal(b1-4)GlcNAc(b1-2)Man = biological target: Gal(b1-4)GlcNAc(b1-2)Man
# Outline: as §1
# [16] = biological target: Gal(b1-4)GlcNAc(b1-2)Man(a1-3)Man(b1-4)GlcNAc(b1-4)GlcNAc
# Outline: as §1
# [17] = biological target: Gal(b1-4)GlcNAc(b1-2)Man(a1-3)[Gal(b1-4)GlcNAc(b1-2)Man(a1-6)]Man(b1-4)GlcNAc(b1-4)GlcNAc
# Outline: as §1
# [18] = biological target: Gal(b1-4)GlcNAc(b1-2)Man(a1-3)[Gal(b1-4)GlcNAc(b1-2)Man(a1-6)]Man(b1-4)GlcNAc(b1-4)[Fuc(a1-6)]GlcNAc
# Outline: as §1
# [19] = biological target: Gal(b1-4)GlcNAc(b1-2)Man(a1-3)[Gal(b1-4)GlcNAc(b1-2)Man(a1-6)][Gal(b1-4)GlcNAc(b1-4)]Man(b1-4)GlcNAc(b1-4)[Fuc(a1-6)]GlcNAc
# Outline: as §1
# [20] = biological target: Gal(b1-4)GlcNAc(b1-2)Man(a1-3)[Gal(b1-4)GlcNAc(b1-2)Man(a1-6)][GlcNAc(b1-4)]Man(b1-4)GlcNAc(b1-4)[Fuc(a1-6)]GlcNAc
# Outline: as §1
# [21] = biological target: Gal(b1-4)GlcNAc(b1-2)Man(a1-3)[GlcNAc(b1-2)Man(a1-6)]Man(b1-4)GlcNAc(b1-4)GlcNAc
# Outline: as §1
# [22] = biological target: Gal(b1-4)GlcNAc(b1-2)Man(a1-3)[GlcNAc(b1-4)][Gal(b1-4)GlcNAc(b1-2)Man(a1-6)]Man(b1-4)GlcNAc(b1-4)GlcNAc
# Outline: as §1
# [23] = biological target: Gal(b1-4)GlcNAc(b1-2)Man(a1-3)[Man(a1-6)]Man(b1-4)GlcNAc(b1-4)GlcNAc
# Outline: as §1
# [24] = biological target: Gal(b1-4)GlcNAc(b1-2)Man(a1-6)Man(b1-4)GlcNAc(b1-4)GlcNAc
# Outline: as §1
# [25] = biological target: Gal(b1-4)GlcNAc(b1-2)Man(a1-6)[GlcNAc(b1-2)Man(a1-3)]Man(b1-4)GlcNAc(b1-4)GlcNAc
# Outline: as §1
# [26] = biological target: Gal(b1-4)GlcNAc(b1-2)Man(a1-6)[Man(a1-3)]Man(b1-4)GlcNAc(b1-4)GlcNAc
# Outline: as §1
# [27] = biological target: Gal(b1-4)GlcNAc(b1-2)[Gal(b1-4)GlcNAc(b1-4)]Man(a1-3)[Gal(b1-4)GlcNAc(b1-2)Man(a1-6)]Man(b1-4)GlcNAc(b1-4)GlcNAc
# Outline: as §1
# [28] = biological target: Gal(b1-4)GlcNAc(b1-2)[Gal(b1-4)GlcNAc(b1-4)]Man(a1-3)[Gal(b1-4)GlcNAc(b1-2)[Gal(b1-4)GlcNAc(b1-6)]Man(a1-6)]Man(b1-4)GlcNAc(b1-4)GlcNAc
# Outline: as §1
# [29] = biological target: Gal(b1-4)GlcNAc(b1-2)[Gal(b1-4)GlcNAc(b1-4)]Man(a1-3)[GlcNAc(b1-4)][Gal(b1-4)GlcNAc(b1-2)Man(a1-6)]Man(b1-4)GlcNAc(b1-4)GlcNAc
# Outline: as §1
# [30] = biological target: Gal(b1-4)GlcNAc(b1-2)[Gal(b1-4)GlcNAc(b1-4)]Man(a1-3)[GlcNAc(b1-4)][Gal(b1-4)GlcNAc(b1-2)[Gal(b1-4)GlcNAc(b1-6)]Man(a1-6)]Man(b1-4)GlcNAc(b1-4)GlcNAc
# Outline: as §1
# [31] = biological target: Gal(b1-4)GlcNAc(b1-2)[Gal(b1-4)GlcNAc(b1-6)]Man(a1-6)[Gal(b1-4)GlcNAc(b1-2)Man(a1-3)]Man(b1-4)GlcNAc(b1-4)GlcNAc
# Outline: as §1
# [32] = biological target: Gal(b1-4)GlcNAc(b1-2)[Gal(b1-4)GlcNAc(b1-6)]Man(a1-6)[Gal(b1-4)GlcNAc(b1-2)Man(a1-3)]Man(b1-4)GlcNAc(b1-4)[Fuc(a1-6)]GlcNAc
# Outline: as §1
# [33] = biological target: Gal(b1-4)GlcNAc(b1-2)[Gal(b1-4)GlcNAc(b1-6)]Man(a1-6)[GlcNAc(b1-4)][Gal(b1-4)GlcNAc(b1-2)Man(a1-3)]Man(b1-4)GlcNAc(b1-4)GlcNAc
# Outline: as §1
# [34] = biological target: Gal(b1-4)GlcNAc(b1-2)[Gal(b1-4)GlcNAc(b1-6)]Man(a1-6)[GlcNAc(b1-4)][Gal(b1-4)GlcNAc(b1-2)[Gal(b1-4)GlcNAc(b1-4)]Man(a1-3)]Man(b1-4)GlcNAc(b1-4)[Fuc(a1-6)]GlcNAc
# Outline: as §1
# [35] = biological target: Gal(b1-4)GlcNAc(b1-3)Gal(b1-3)GalNAc
# Outline: as §1
# [36] = biological target: Gal(b1-4)GlcNAc(b1-3)Gal(b1-3)GlcNAc
# Outline: as §1
# [37] = biological target: Gal(b1-4)GlcNAc(b1-3)Gal(b1-4)Glc
# Outline: as §1
# [38] = biological target: Gal(b1-4)GlcNAc(b1-3)Gal(b1-4)GlcNAc
# Outline: as §1
# [39] = biological target: Gal(b1-4)GlcNAc(b1-3)Gal(b1-4)GlcNAc(b1-2)Man(a1-3)[Gal(b1-4)GlcNAc(b1-3)Gal(b1-4)GlcNAc(b1-2)Man(a1-6)]Man(b1-4)GlcNAc(b1-4)GlcNAc
# Outline: as §1
binder,measurement,setting,value
"BC2LB (Burholderia cenocepacia), B4EH85_BURCJ (protein) MGSSHHHHHHSSGENLYFQGHMSQPFTHDDLYALLQLAGNDATAVQANGDQAVLDRMRQFMTAQLVEKLPQYDVFVDIATIPYSFDVGSWQNKVKTDAAGEVVACTVTWAGAPGVLPGAAAKFGVGAVVNYFSKATPH",glycan array binding signal (z-score),[1],-0.294
same,glycan array binding signal (z-score),[2],-0.3
same,glycan array binding signal (z-score),Gal(b1-3)GlcNAc6S,-0.204
same,glycan array binding signal (z-score),[3],0.255
same,glycan array binding signal (z-score),[4],-0.354
same,glycan array binding signal (z-score),[5],-0.098
same,glycan array binding signal (z-score),[6],-0.301
same,glycan array binding signal (z-score),[7],-0.154
same,glycan array binding signal (z-score),[8],-0.203
same,glycan array binding signal (z-score),[9],-0.228
same,glycan array binding signal (z-score),[10],-0.283
same,glycan array binding signal (z-score),[11],-0.126
same,glycan array binding signal (z-score),[12],-0.265
same,glycan array binding signal (z-score),Gal(b1-4)Gal,-0.306
same,glycan array binding signal (z-score),[13],-0.333
same,glycan array binding signal (z-score),[14],-0.357
same,glycan array binding signal (z-score),Gal(b1-4)Glc,-0.344
same,glycan array binding signal (z-score),Gal(b1-4)Glc6S,-0.223
same,glycan array binding signal (z-score),Gal(b1-4)GlcNAc,-0.234
same,glycan array binding signal (z-score),[15],-0.256
same,glycan array binding signal (z-score),Gal(b1-4)GlcNAc(b1-2)Man,0.281
same,glycan array binding signal (z-score),[16],-0.138
same,glycan array binding signal (z-score),[17],-0.343
same,glycan array binding signal (z-score),[18],-0.022
same,glycan array binding signal (z-score),[19],-0.306
same,glycan array binding signal (z-score),[20],-0.329
same,glycan array binding signal (z-score),[21],-0.234
same,glycan array binding signal (z-score),[22],-0.264
same,glycan array binding signal (z-score),[23],0.202
same,glycan array binding signal (z-score),[24],-0.192
same,glycan array binding signal (z-score),[25],-0.225
same,glycan array binding signal (z-score),[26],-0.308
same,glycan array binding signal (z-score),[27],-0.008
same,glycan array binding signal (z-score),[28],-0.407
same,glycan array binding signal (z-score),[29],-0.282
same,glycan array binding signal (z-score),[30],-0.22
same,glycan array binding signal (z-score),[31],-0.217
same,glycan array binding signal (z-score),[32],-0.243
same,glycan array binding signal (z-score),[33],-0.374
same,glycan array binding signal (z-score),[34],-0.237
same,glycan array binding signal (z-score),[35],-0.131
same,glycan array binding signal (z-score),[36],-0.143
same,glycan array binding signal (z-score),[37],-0.171
same,glycan array binding signal (z-score),[38],-0.295
same,glycan array binding signal (z-score),[39],-0.229
